Data on 27 compounds can be found in the supplement of paper PMC4604168 (melanoma cell lines).

The list shows a part of the results. Single values are uncertain, as repeats are few or missing.
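Further: cell number obtained by counting DAPI-stained nuclei in high-throughput microscope images with image analysis software, screen run in 1,536-well plates.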

The subject of this experiment is 501Mel. Nature of the experiment: cell count relative to DMSO control; melanoma cells; higher = more viable cells. Conditions: library dose: low library concentration; 72 h.
On to `COc1cc([C@@H]2c3cc4c(cc3[C@@H](O[C@@H]3O[C@@H]5CO[C@@H](C)O[C@H]5[C@H](O)[C@H]3O)[C@H]3COC(=O)[C@H]23)OCO4)cc(OC)c1O` [etoposide] + O=c1[nH]nc(Sc2ncc([N+](=O)[O-])s2)n1-c1ccc2c(c1)OCCO2 [BI78D3] (first compound 0.02 µM, partner dose 0.2 µM), for which the cell count was found to be 156%.

As to `Cn1cnc2c(F)c(Nc3ccc(Br)cc3Cl)c(C(=O)NOCCO)cc21` [selumetinib] + Nc1nc(F)nc2c1ncn2[C@@H]1O[C@H](CO)[C@@H](O)[C@@H]1O [fludarabine] (first compound 0.015 µM, partner dose 0.2 µM), the cell count worked out at 0.555%.

In the case of `Cn1cnc2c(F)c(Nc3ccc(Br)cc3Cl)c(C(=O)NOCCO)cc21` [selumetinib] + Clc1ccc(Nc2nnc(Cc3ccncc3)c3ccccc23)cc1 [vatalanib] (first compound 0.015 µM, partner dose 2 µM), the cell count is 10.2%.

The compound `CCN(CC)CCNC(=O)c1c(C)[nH]c(/C=C2\C(=O)Nc3ccc(F)cc32)c1C` [sunitinib] + O=C(O)c1ccc2c(c1)nc(Nc1cccc(Cl)c1)c1ccncc12 [CX4945] (first compound 0.4 µM, partner dose 0.4 µM) yielded a cell count of 80.2%.

As to `C[C@]1(O)C[C@@H](c2nc(-c3ccc4ccc(-c5ccccc5)nc4c3)c3c(N)nccn32)C1` + NC1(c2ccc(-c3nc4ccn5c(=O)[nH]nc5c4cc3-c3ccccc3)cc2)CCC1 [MK2206] (first compound 0.4 µM, partner dose 0.4 µM), the cell count stood at 80.5%.

`C[C@]1(O)C[C@@H](c2nc(-c3ccc4ccc(-c5ccccc5)nc4c3)c3c(N)nccn32)C1` + CCCS(=O)(=O)Nc1ccc(F)c(C(=O)c2c[nH]c3ncc(Cl)cc23)c1F [PLX4720] (first compound 0.4 µM, partner dose 0.08 µM) had a cell count of 40.4%.

On to `C[C@]1(O)C[C@@H](c2nc(-c3ccc4ccc(-c5ccccc5)nc4c3)c3c(N)nccn32)C1` + C[C@]1(c2nc3c(C(N)=O)cccc3[nH]2)CCCN1 [Veliparib] (first compound 0.4 µM, partner dose 1.4 µM), for which the cell count amounted to 57.4%.

For the compound `COc1cc([C@@H]2c3cc4c(cc3[C@@H](O[C@@H]3O[C@@H]5CO[C@@H](C)O[C@H]5[C@H](O)[C@H]3O)[C@H]3COC(=O)[C@H]23)OCO4)cc(OC)c1O` [etoposide] + CN(c1ncccc1CNc1nc(Nc2ccc3c(c2)CC(=O)N3)ncc1C(F)(F)F)S(C)(=O)=O [PF562271] (first compound 0.02 µM, partner dose 0.08 µM), the cell count was determined as 85.7%.

Regarding `C[C@]1(O)C[C@@H](c2nc(-c3ccc4ccc(-c5ccccc5)nc4c3)c3c(N)nccn32)C1` + Clc1ccc(Nc2nnc(Cc3ccncc3)c3ccccc23)cc1 [vatalanib] (first compound 0.4 µM, partner dose 2 µM), the cell count amounted to 40.3%.

With `COc1cc([C@@H]2c3cc4c(cc3[C@@H](O[C@@H]3O[C@@H]5CO[C@@H](C)O[C@H]5[C@H](O)[C@H]3O)[C@H]3COC(=O)[C@H]23)OCO4)cc(OC)c1O` [etoposide] + O=C(O)[C@@H]1[O][Sb](=[O])([O][Sb]2(=[O])[O][C@H]([C@H](O)CO)[C@H](O)[C@H](C(=O)O)[O]2)[O][C@H]([C@H](O)CO)[C@@H]1O [stibogluconate] (first compound 0.02 µM, partner dose 2 µM), the cell count is 49.3%.

In turn, `CCN(CC)CCNC(=O)c1c(C)[nH]c(/C=C2\C(=O)Nc3ccc(F)cc32)c1C` [sunitinib] + Cn1c(Nc2ccc(C(F)(F)F)cc2)nc2cc(Oc3ccnc(-c4ncc(C(F)(F)F)[nH]4)c3)ccc21 [CHIR265] (first compound 0.4 µM, partner dose 0.08 µM) yielded a cell count of 44.5%.

Regarding `CCN(CC)CCNC(=O)c1c(C)[nH]c(/C=C2\C(=O)Nc3ccc(F)cc32)c1C` [sunitinib] + CNC(=O)c1cc(Oc2ccc(NC(=O)Nc3ccc(Cl)c(C(F)(F)F)c3)cc2)ccn1 [sorafenib] (first compound 0.4 µM, partner dose 0.4 µM), the cell count worked out at 46.1%.

In turn, `C[C@]1(O)C[C@@H](c2nc(-c3ccc4ccc(-c5ccccc5)nc4c3)c3c(N)nccn32)C1` + C=C(c1ccc(C(=O)O)cc1)c1cc2c(cc1C)C(C)(C)CCC2(C)C [Bexarotene] (first compound 0.4 µM, partner dose 2 µM) returned a cell count of 42.6%.

In turn, `CCN(CC)CCNC(=O)c1c(C)[nH]c(/C=C2\C(=O)Nc3ccc(F)cc32)c1C` [sunitinib] + CN(c1ncccc1CNc1nc(Nc2ccc3c(c2)CC(=O)N3)ncc1C(F)(F)F)S(C)(=O)=O [PF562271] (first compound 0.4 µM, partner dose 0.08 µM) showed a cell count of 121%.

Compound `CCN(CC)CCNC(=O)c1c(C)[nH]c(/C=C2\C(=O)Nc3ccc(F)cc32)c1C` [sunitinib] + NC1(c2ccc(-c3nc4ccn5c(=O)[nH]nc5c4cc3-c3ccccc3)cc2)CCC1 [MK2206] (first compound 0.4 µM, partner dose 0.4 µM) gave a cell count of 58.1%.

With `Cn1cnc2c(F)c(Nc3ccc(Br)cc3Cl)c(C(=O)NOCCO)cc21` [selumetinib] + CNC(=O)c1cc(Oc2ccc(NC(=O)Nc3ccc(Cl)c(C(F)(F)F)c3)cc2)ccn1 [sorafenib] (first compound 0.015 µM, partner dose 0.4 µM), the cell count stood at 70.9%.

In the case of `Cn1cnc2c(F)c(Nc3ccc(Br)cc3Cl)c(C(=O)NOCCO)cc21` [selumetinib] + Cc1cc(Nc2cc(N3CCN(C)CC3)nc(/C=C/c3ccccc3)n2)n[nH]1 [ENMD2076] (first compound 0.015 µM, partner dose 0.04 µM), the cell count came out at 12.6%.

Compound `COc1cc([C@@H]2c3cc4c(cc3[C@@H](O[C@@H]3O[C@@H]5CO[C@@H](C)O[C@H]5[C@H](O)[C@H]3O)[C@H]3COC(=O)[C@H]23)OCO4)cc(OC)c1O` [etoposide] + Nc1nc(F)nc2c1ncn2[C@@H]1O[C@H](CO)[C@@H](O)[C@@H]1O [fludarabine] (first compound 0.02 µM, partner dose 0.2 µM) registered a cell count of 0.494%.

`COc1cc([C@@H]2c3cc4c(cc3[C@@H](O[C@@H]3O[C@@H]5CO[C@@H](C)O[C@H]5[C@H](O)[C@H]3O)[C@H]3COC(=O)[C@H]23)OCO4)cc(OC)c1O` [etoposide] + Cn1sc(=O)n(Cc2ccccc2)c1=O [TDZD-8] (first compound 0.02 µM, partner dose 0.4 µM): the cell count is 52.4%.

For `Cn1cnc2c(F)c(Nc3ccc(Br)cc3Cl)c(C(=O)NOCCO)cc21` [selumetinib] + CO[C@H]1C[C@@H]2CC[C@@H](C)[C@@](O)(O2)C(=O)C(=O)N2CCCC[C@H]2C(=O)O[C@H]([C@H](C)C[C@@H]2CC[C@@H](OCCO)[C@H](OC)C2)CC(=O)[C@H](C)/C=C(\C)[C@@H](O)[C@@H](OC)C(=O)[C@H](C)C[C@H](C)/C=C/C=C/C=C/1C [everolimus] (first compound 0.015 µM, partner dose 0.02 µM), the cell count was 0.744%.

Consider `Cn1cnc2c(F)c(Nc3ccc(Br)cc3Cl)c(C(=O)NOCCO)cc21` [selumetinib] + COc1ccc(C2=N[C@@H](c3ccc(Cl)cc3)[C@@H](c3ccc(Cl)cc3)N2C(=O)N2CCNC(=O)C2)c(OC(C)C)c1 [Nutlin-3] (first compound 0.015 µM, partner dose 0.1 µM), for which the cell count is 12.1%.

On to `C[C@]1(O)C[C@@H](c2nc(-c3ccc4ccc(-c5ccccc5)nc4c3)c3c(N)nccn32)C1` + CN(c1ncccc1CNc1nc(Nc2ccc3c(c2)CC(=O)N3)ncc1C(F)(F)F)S(C)(=O)=O [PF562271] (first compound 0.4 µM, partner dose 0.08 µM), for which the cell count amounted to 43.5%.

For `CCN(CC)CCNC(=O)c1c(C)[nH]c(/C=C2\C(=O)Nc3ccc(F)cc32)c1C` [sunitinib] + CC(=O)c1c(C)c2cnc(Nc3ccc(N4CCNCC4)cn3)nc2n(C2CCCC2)c1=O [palbociclib] (first compound 0.4 µM, partner dose 0.04 µM), the cell count was found to be 18.8%.

The compound `C[C@]1(O)C[C@@H](c2nc(-c3ccc4ccc(-c5ccccc5)nc4c3)c3c(N)nccn32)C1` + CNC(=O)c1cc(Oc2ccc(NC(=O)Nc3ccc(Cl)c(C(F)(F)F)c3)cc2)ccn1 [sorafenib] (first compound 0.4 µM, partner dose 0.4 µM) came in with a cell count of 111%.

Compound `Cn1cnc2c(F)c(Nc3ccc(Br)cc3Cl)c(C(=O)NOCCO)cc21` [selumetinib] + COc1ccc(Cl)c(Nc2nc3ccccc3nc2NS(=O)(=O)c2cccc(NC(=O)C(C)(C)N)c2)c1 [XL147] (first compound 0.015 µM, partner dose 0.8 µM) displayed a cell count of 15.8%.

In turn, `Cn1cnc2c(F)c(Nc3ccc(Br)cc3Cl)c(C(=O)NOCCO)cc21` [selumetinib] + CN(c1ncccc1CNc1nc(Nc2ccc3c(c2)CC(=O)N3)ncc1C(F)(F)F)S(C)(=O)=O [PF562271] (first compound 0.015 µM, partner dose 0.08 µM) displayed a cell count of 22.8%.

In turn, `C[C@]1(O)C[C@@H](c2nc(-c3ccc4ccc(-c5ccccc5)nc4c3)c3c(N)nccn32)C1` + CCCCCCCCc1ccc(CCC(N)(CO)CO)cc1 [fingolimod] (first compound 0.4 µM, partner dose 2 µM) returned a cell count of 19.4%.
